About 14,000 (4.5%) of roughly 310,000 compounds showed an effect of 50% or more. Effects have a minus sign here. The list shows a part of the results.
biological target: human ether-à-go-go-related gene (hERG) potassium channel (human, UniProt Q12809); assay: primary screen, population patch clamp on CHO cells stably expressing hERG
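Note: peak tail current of the secondary pulse compared with the same well before compound.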

Sequence of human ether-à-go-go-related gene (hERG) potassium channel (Q12809 whole entry, looked up): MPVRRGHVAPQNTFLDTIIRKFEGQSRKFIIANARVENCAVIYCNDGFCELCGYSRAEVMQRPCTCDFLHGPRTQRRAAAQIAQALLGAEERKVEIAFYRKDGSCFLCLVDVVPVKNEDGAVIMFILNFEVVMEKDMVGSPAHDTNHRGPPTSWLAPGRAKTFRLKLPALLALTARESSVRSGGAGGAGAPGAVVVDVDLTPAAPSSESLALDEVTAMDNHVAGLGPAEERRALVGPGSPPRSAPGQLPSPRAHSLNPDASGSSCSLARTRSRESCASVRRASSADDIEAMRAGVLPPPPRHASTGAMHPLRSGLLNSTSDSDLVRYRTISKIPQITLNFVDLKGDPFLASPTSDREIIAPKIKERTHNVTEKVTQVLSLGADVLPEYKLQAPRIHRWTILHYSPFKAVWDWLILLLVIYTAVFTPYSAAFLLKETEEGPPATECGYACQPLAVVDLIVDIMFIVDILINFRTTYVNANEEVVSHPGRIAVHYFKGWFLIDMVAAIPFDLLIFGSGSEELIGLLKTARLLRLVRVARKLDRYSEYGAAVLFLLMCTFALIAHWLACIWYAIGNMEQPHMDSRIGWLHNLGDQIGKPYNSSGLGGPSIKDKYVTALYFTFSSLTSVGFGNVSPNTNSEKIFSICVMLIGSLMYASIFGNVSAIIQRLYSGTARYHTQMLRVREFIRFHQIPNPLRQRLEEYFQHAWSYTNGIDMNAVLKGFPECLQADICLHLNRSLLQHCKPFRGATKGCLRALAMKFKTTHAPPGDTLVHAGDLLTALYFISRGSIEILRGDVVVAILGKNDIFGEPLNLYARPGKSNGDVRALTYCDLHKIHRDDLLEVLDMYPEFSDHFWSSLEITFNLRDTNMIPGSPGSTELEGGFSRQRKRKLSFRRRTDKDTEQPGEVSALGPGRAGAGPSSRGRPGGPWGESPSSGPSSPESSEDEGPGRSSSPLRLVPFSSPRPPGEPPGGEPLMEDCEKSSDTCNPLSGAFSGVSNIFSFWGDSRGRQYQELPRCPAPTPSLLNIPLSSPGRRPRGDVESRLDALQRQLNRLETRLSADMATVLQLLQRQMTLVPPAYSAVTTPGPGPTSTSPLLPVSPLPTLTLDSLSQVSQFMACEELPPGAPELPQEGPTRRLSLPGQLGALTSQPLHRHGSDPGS

Structure (SMILES) | hERG current change (%, negative = inhibition) at 10uM [%]
Nc1ncnc2c1nc(N1CCCCC1)n2[C@@H]1O[C@H](CO)[C@@H](O)[C@H]1O | 19.3
COc1ccc(S(=O)(=O)N2CCC(C(=O)N[C@@H](C)C(=O)NC3CC3)CC2)cc1 | 20.5
CO[C@H]1C=C2CCN(C)[C@H]2C2c3cc4c(cc3C(=O)O[C@@H]21)OCO4.O=[N+]([O-])O (stereo partly drawn) | 14.5
CCOc1ccc(NCc2cccn2-c2nnc(N3CCC(C(=O)NCCCN4CCCCC4CC)CC3)s2)cc1 (stereo not drawn) | -68
CCCN(CCC)c1nc2ccccc2n2c(C)nnc12 | -46.4
CCOc1ccccc1NS(=O)(=O)c1cccc2nsnc12 | -15.6
Cc1ccc(S(=O)(=O)N2CCN(C(=O)c3c(-c4ccccc4)noc3C)CC2)c(C)c1 | -8.61
Cc1cc(C)c(C#N)c(Nc2ccccc2C)n1 | 12.4
O=Cc1ccc(C(=O)OCC(=O)N2CCCC2)cc1 | 17.3
CCN(C1CCCCC1)S(=O)(=O)c1ccc(S(=O)(=O)N2CCN(CCC#N)CC2)cc1 | -25.9
COCCCN(Cc1cccs1)S(=O)(=O)c1csc(C(N)=O)c1 | -0.232
O=C(NCCCN1CCCC1=O)c1ccc(Cl)c(S(=O)(=O)N2CCCCC2)c1 | -24.1
CCc1cc2c(nc1CC)CCN(CC/C(C)=N/O[C@@H](C)c1cc(-c3c(C)cc(C)cc3C)no1)C2 | -7.78
CC(C)CC(=O)NC(=S)Nc1ccc(NC(=O)c2ccco2)cc1 | 24.5
O=C(CSc1nn(-c2ccccc2)c(=S)s1)Nn1cnnc1 | 14.8
CCCCN(C(=O)CCn1c(=O)oc2ccccc21)c1ccccc1 | -17.7
COCCn1ccc2c(OCC(=O)NCCc3ccccc3)cccc2c1=O | -19.4
Cc1ccc(NC(=O)CCc2ccc(C)o2)cc1 | -0.805
O=C(COc1ccccc1Cl)Nc1cccc(S(=O)(=O)N2CCCC2)c1 | 2.28
COc1ccc(NC(=S)Nc2cccc(Cl)c2Cl)cc1OC | 6.31
O=C(Nc1ncc2c(n1)-c1ccccc1CC2)c1cccs1 | -25.7
CC(=O)c1sc(NC(=O)c2ccc(C)cc2)nc1C | 7.72
Cc1ccccc1OCCNCC(C)O.O=C(O)C(=O)O (stereo not drawn) | 20.1
CC1CCCCC12NC(=O)N(CC(=O)Nc1ccc3[nH]c(=O)[nH]c3c1)C2=O (stereo not drawn) | 7.01

Reference: PMC4336329 (PLoS ONE, 2015)
